Here are results for 5 compounds from patent US10933169B2, “Bone morphogenetic protein pathway activation, compositions for ossification, and methods related thereto” (Emory University, priority 2012, dated 2021).

The assay relates to BMP-induced ALP activity in C2C12 cells. The assay can be described thus: BMP-induced alkaline phosphatase (ALP) potentiation assay in C2C12 cells. The conditions noted are these: sub-optimal doses of BMP in the presence or absence of exogenously added noggin, relative to BMP alone control.
Turning to `c1ccc(-n2nnnc2-c2cccc3ccccc23)cc1` [5-(Naphthalen-1-yl)-1-phenyl-1h-tetrazole], the “Fold-increase of BMP-induced ALP (over BMP alone control)” value is 2.5 fold. The figure for `O=[N+]([O-])C1C(c2ccccc2)C12c1ccccc1-c1ccccc12` (centres unmarked) [2-Nitro-3-phenylspiro[cyclopropane-1,9′-fluorene]] is 4.0 fold; for `COC(=O)c1c[nH]c2c1-c1cc(C(=O)OCc3ccccc3)n(S(=O)(=O)c3ccc(C)cc3)c1C(=O)C2=O` [2-O-Benzyl 8-O-methyl 3-(4-methylphenyl)sulfonyl-4,5-dioxo-6H-pyrrolo[3,2-e]indole-2,8-dicarboxylate] it is 3.0 fold; for `Cc1ccc(NCCN(C)C)c2c(=O)c3cc(O)ccc3sc12.I` [1-[[2-(Dimethylamino)ethyl]amino]-7-hydroxy-4-methyl-9H-thioxanthen-9-one monohydriodide] it is 3.0 fold. The figure for “5-Methylbenzo[c]phenanthridin-5-ium-2,3,8,9-tetrol” is 2.0 fold.
